# In the supplement of paper PMC12632987:
# Over roughly 4,500 sequences, “median log2 fold change of GCK-ALFA target abundance (FLAG IP / Myc IP barcode read proportion)” has its median near 0.078; the lowest 2% begin near -0.6. The list shows a part of the results.
# B1: GBRAP_160_4223 (protein)
# chain: METVEKLVEVFREEFEEALELIEGESPEERRVILDVAAGNVILEAEEIPEATEEMVEVVDRKAEEARERLLAARDASPEERRELIREQAEELREELEKLA
# B2: GBRAP_184_5157 (protein)
# chain: KVLERVIKAENKEELEEKLAEIRAEAAETKADVYVIVELKNPTKEMLELLLTALGEIKAEGLSPNVVVELTNDLTEEQIDFALKLADEQGVKLVIAISDE
# B3: GBRAP_160_4098 (protein)
# chain: SAEVEKLIEEIDELLEETKEMIKGESIENRAIIVRGFGGDVLMLLFSSGLVSEETEDFADELFDELVETIESNPDLTEEEIIKLIEEVVEEVKEKIKEEH
# B4: GBRAP_160_4624 (protein)
# chain: SAKLEKAKAMFEEAREFVLSLVPEVDTATFAAFLDTEFGSVILEALEEGLISEETADKMMAIVDEAVAHLLAHPDLSDEERRALVEEMLARIFEVLEKEY
# B5: GBRAP_79_6746 (protein)
# chain: GVEEARKALAEALKVVLPELTEEELKEIVESDEALKEALKRAGISEESAEELLKAIDEIPEYSAEQFRKAVERMKGLPPEEKRDILEATIAAIIYKAEQK
# B6: GBRAP_160_4512 (protein)
# chain: KETLEELFKEIEEAKERILEVIDENDMEAAIIEAEVEYGKVIMEMFEREEVSDEAVEAAAEIRDELVEELKANKDAPVEEKKKIVEEHAEKLKEKLKELF
# B7: GBRAP_160_4415 (protein)
# chain: SETIEEVEELLREMEELVLELVEEGERAEALAAARVGAGEILLYLDEDERVSEEAEEKVDAVLDALVAELEANADASPEEVRALLEAARKEVLEILKEHT
# B8: GBRAP_184_5243 (protein)
# chain: TVVDVEVVASTPEEAKAKLDAVRAAAEASGAKVNLFVTLKDATKELVETVFAQIKALRDAGLLERVHVEIDSFADEETKELAFDLAHEVGVDALAYNDEG
# B9: GBRAP_43_5752 (protein)
# chain: MEEIIEGAVDFATLAAEDPNISEEQKLKIAKDVFEIVADEGIKLPEELSKLTRALAKSLSLEQLKELLKHLKELAEKYPELKEDFEANAKIIEEAIKKKE
# B10: GBRAP_128_3406 (protein)
# chain: MNEEKVKEAKKLLDEILKSDKEEAKKLAKELEKLLLESDLETVKEVVEYVKEKADEFNEEQLAILMDAFHKVAKESDPEKAEAAVEAIGILGEKLYELEE
# B11: GBRAP_57_6457 (protein)
# chain: MSRLEKVEKHAEEARKALEEGAPVEEVLKEIRKMLELLDKETLLDIALILDPSTDMDLSKEELIEHIVEIAREAAETEGPERVRAIIDLIEGQAEMDAIE
# B12: GBRAP_128_3247 (protein)
# chain: GQEELLEKAKEIIDEIVEVDEEEARKLTEELLELSKELSPEAREKVAEYAEEKLEELTAEKLEVVADTIRERRGELDPETAALWAGVEIEALERAEELKE
# B13: GBRAP_11_2804 (protein)
# chain: EKEKLKELKKLLEEAAKLLEELLKKGVDDEELRKEIEKKLEEAAKLAKELGDKSIEKLVEIAKELLKKAKEDPENAEEYVKLAKATLRVAAGQVLLEIEE
# B14: GBRAP_160_4705 (protein)
# chain: SETAEELIKYVDEEFEKMKEEIKGESAEQRATIAEGAFGEIIMELSENPEASDELEDEVDKIGDELVATIKANPDLTDEEIEKLIDEAKEKIKEAIKKKL
# B15: GBRAP_52_6306 (protein)
# chain: SAARLRALAERALALMRAGDREGLRALFREIARTLSDEELLALARALAELAATLNEEEIDRFMEMLEIAEEVWEEEGVDPGVIAEALGIVVTALYAREQA
# B16: GBRAP_139_3693 (protein)
# chain: SEREEKLERARELTRRAVEEGRPALRELAEYLVSLSEEEQIAAAEEIAEVLLELPFDEAERLLEELIEILREEFGNEDLAEIVEAARNRALALIAVREEA
# B17: GBRAP_160_4494 (protein)
# chain: MEKLEEFKKEVEELIEEAKEAILEEDTDGKRGIARAYAGDIVQEALELGVVSEEEADELLELAEKGMEEIVAAKEKGPEAMEKAAKKLKEELFKFADKAA
# B18: GBRAP_160_4116 (protein)
# chain: KEELKEMLEDNAEDLEETIKIIEDLSPEEAGTLAIVTLGEILLDASEFGEELEEIEKLAEEAIEEIKKTAKEDPSKLKEVSKKKLEEIKEALEKKAKEVK
# B19: GBRAP_166_4885 (protein)
# chain: SKEEEIEKLLKEAKEYIEKIPSADEEEKQELVYEAAEALAKILELSPNDEEIHKKITELIKKLIEAVGDPTLVRGALGSNISMDEELIDKLEELLEEALK
# Target: GABARAP, O95166
# Assay: median log2 fold change of GCK-ALFA target abundance (FLAG IP / Myc IP barcode read proportion) (log2 ratio); each designed protein is fused to an ALFA-tag nanobody in HEK293 cells to bring the named protein to FLAG-tagged glucokinase (GCK); Myc marks an untargeted standard; higher = target protein stabilised (more abundant)
# Details: target protein: 3xFLAG-MCP-GCK-ALFA reporter; HEK293 landing pad (RPLP)
# Method in brief: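 The readout is target abundance, the per-binder median log2 ratio of FLAG to Myc barcode read proportions. It came from HEK293 landing-pad cells carrying a recombined ALFA-nanobody-fused binder library, induced with 2 μg mL^−1 doxycycline and transfected with a plasmid for a FLAG-tagged target and a Myc-tagged standard. After 48 h, lysates were immunoprecipitated with anti-FLAG and anti-Myc, and circular RNA barcodes were reverse transcribed, amplified and sequenced. Each barcode needed a proportion of at least 10^−7 in both replicates and each binder at least 3 barcodes per replicate, a pseudocount of 10^−6 was added, and the replicates were pooled.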
# GABARAP, O95166, sequence (O95166 whole entry, the tested form may be a part): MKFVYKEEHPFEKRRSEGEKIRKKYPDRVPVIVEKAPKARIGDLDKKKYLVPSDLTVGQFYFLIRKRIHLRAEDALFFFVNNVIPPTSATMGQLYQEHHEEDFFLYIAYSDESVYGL
row,Binder,median log2 fold change
1,B1,-0.311
2,B2,0.167
3,B3,-0.278
4,B4,-0.133
5,B5,0.368
6,B6,0.124
7,B7,-0.111
8,B8,0.225
9,B9,0.108
10,B10,0.39
11,B11,-0.414
12,B12,0.147
13,B13,-0.597
14,B14,0.417
15,B15,-0.273
16,B16,0.299
17,B17,-0.0541
18,B18,-0.151
19,B19,0.141
